This is an account of results in patent US20260217837A1, “FGFR3 BINDING MOLECULES AND METHODS OF USE THEREOF” (Regeneron Pharmaceuticals, Inc., priority 2023, published 2026).

One experiment has as its target T1, mouse FGFR3b (Mus musculus, UniProt Q61851).
T1 construct: biotinylated human or mouse FGFR3b-ecto.mmH, human FGFR3c-ecto.mmH or Fel-d 1.mmH; mmh (C)
T1 sequence (Q61851 21-371 isoform Q61851-2): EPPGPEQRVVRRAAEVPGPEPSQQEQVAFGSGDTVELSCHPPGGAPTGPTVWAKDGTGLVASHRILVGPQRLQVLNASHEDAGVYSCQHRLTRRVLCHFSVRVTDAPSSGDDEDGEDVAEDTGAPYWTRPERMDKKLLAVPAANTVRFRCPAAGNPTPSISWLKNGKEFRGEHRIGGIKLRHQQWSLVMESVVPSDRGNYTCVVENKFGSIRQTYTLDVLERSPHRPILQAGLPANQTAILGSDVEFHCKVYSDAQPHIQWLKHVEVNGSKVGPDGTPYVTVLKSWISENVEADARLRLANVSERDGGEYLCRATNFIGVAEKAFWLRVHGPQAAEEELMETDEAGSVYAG
The experiment in a line: Biacore binding to mouse FGFR3b. As to conditions: 25 C. As to the method: (§1) Affinity and mechanism of action of binding of anti-FGFR3 antibodies to FGFR3 isoforms were determined by Biacore analysis. In brief, in-house generated monoclonal anti-human Fc antibody was immobilized on the surface of a CM-5 sensor chip. Different concentrations of FGFR3 antibodies were injected at 50 μL/min for 4 min and the assay was performed at 25° C. The mAb binding response was monitored and, for low affinity receptors, steady-state binding equilibrium was calculated. Kinetic association (ka) and dissociation (kd) rate constants were determined by processing and fitting the data to a 1:1 binding model using Scrubber 2.0 curve fitting software. Binding dissociation equilibrium constants (KD) and dissociative half-lives (t1/2) were calculated from the kinetic rate constants using the formula: KD (M)=kd/ka; and t1/2 (min)=(ln2/(60*kd). Some KD values were derived using the steady state equilibrium dissociation constant; When no KD values could be derived, it was marked as NB (no binding observed) or IC (inconclusive affinity determination due to low specific RU signal).
The binding affinities of BiP063N2 and its parental antibodies to FGFR3 isoforms from different species were assessed via Biacore analysis as described in Section 8.1.7, the results of which are summarized in FIG. 7.
(In general: In SPR one partner is held on a chip, and binding of the other changes the refractive index at the surface.)

The next experiment concerns human FGFR3b (hFGFR3b). Description: Biacore binding to human FGFR3b. Conditions: 25 C. Here is the method:
as §1

Experiment [1] relates to MAPK phosphorylation in BaF3 cells expressing WT hFGFR3b. Description: Western blot, FGF1/heparin induced MAPK phosphorylation in BaF3 WT hFGFR3b cells. The experiment is classed as cell-based. Conditions: 100 nM antibody overnight, 100 nM FGF1 and 10 ug/ml heparin 15 min. Here is the method:
(§2) To evaluate receptor phosphorylation and downstream signaling, cells were serum starved overnight in the presence or absence of indicated antibodies followed by ligand (100 ng/ml human FGF1 and 10 μg/ml heparin) stimulation for 15 min at 37° C. Equal amounts of cell lysates were analyzed by SDS-PAGE. Blots were incubated with pMAPK, MAPK or actin antibodies followed by incubation with HRP secondary antibody. For FGFR3 phosphorylation, equal amounts of cell lysates were incubated with pY100 Sepharose beads overnight and non-specific binding was removed by washes with lysis buffer. Immunoprecipitated proteins were analyzed by reducing or non-reducing SDS-PAGE and blotted with FGFR3 antibody.
On the technique in general: In western blotting, separated proteins are transferred to a membrane and probed.

The subject of experiment [2] is MAPK phosphorylation in BaF3 cells expressing Y375C hFGFR3b. The experiment in a line: Western blot, FGF1/heparin induced MAPK phosphorylation in BaF3 Y375C hFGFR3b cells. In kind it is cell-based. As to conditions: 100 nM antibody overnight, 100 nM FGF1 and 10 ug/ml heparin 15 min. As to the method:
as §2

The test system of experiment [3] is FGFR3. Description: Agonist activity of parental anti-FGFR3 antibodies (Table 1). The experiment is classed as cell-based. Conditions: parental anti-FGFR3 antibody.
Experiment [4] deals with RT4 cells (FGFR3-TACC3 fusion). The experiment in a line: RT4 spheroid cell proliferation assay (CellTiter-Glo 3D). The experiment is classed as cell-based, human. Here is the method: Two human bladder cancer cell lines, UMUC14 (Sigma-Aldrich) and RT4 (ATCC), which express an S249C mutation of FGFR3 or express TACC3-FGFR3 fusion mutation, respectively, were maintained in culture according to the suppliers' recommendations. 7500 UMUC14 or 5000 RT4 bladder cancer cells were seeded in U-bottom low attachment 96-well spheroid plate (Corning) in culture medium (MEM medium with 10% FBS, 1% non-essential amino acids, Pen/Strep). Cells were cultured for 24-48 hours at 37° C. 5% CO2 to allow tumor spheroid formation. Tumor spheroids were treated with antibodies at concentrations ranging from 100 nM to 15.2 pM with 1:3 serial dilution as indicated in the figures. Cells were cultured for 5-6 days, and then subjected to CellTiter-Glo 3D viability assays (Promega) following the manufacturer's protocol. Luminescence signal was read on PE Envision plate reader. Cell proliferation was expressed as percentages of untreated controls. Data were analyzed using GraphPad Prism software using three parameter nonlinear curve fit.

Experiment [5] relates to UMUC14 tumors (FGFR3 S249C). Description: In vivo tumor growth inhibition, UMUC14 xenograft. Also noted: species or system SCID mice. The text has this:
Tumor cells (5×10^6 UMUC14 or RT112 in 50% Matrigel) were implanted subcutaneously (s.c.) into the right flank of 6 to 8-week-old female SCID mice (Jackson Laboratory). Once tumors were established (~200 mm^3 in volume), mice were randomized into treatment groups (n=10 mice per group) and injected intraperitoneally (i.p.) twice per week with anti-FGFR3 antibodies or isotype control at indicated doses. Tumor volume was expressed in mm^3 using the formula: V=0.5×a×b^2 where a and b were the long and short diameters of the tumor, respectively. Tumor sizes were monitored twice weekly. All procedures were conducted according to the guidelines of the Regeneron Institutional Animal Care and Use Committee. All data were analyzed using GraphPad Prism and tumor sizes were graphed as mean±SEM.

Experiment [6] concerns FGFR3. Description: Ligand blocking activity of parental anti-FGFR3 antibodies (Table 1). The experiment is classed as binding. As to conditions: parental anti-FGFR3 antibody.

B1: mAb063: parental anti-FGFR3 antibody of BiP063N2, inhibitory; anchor mAb (antibody)
heavy: QVQLQESGPGLVKPSETLSLTCTVSGDSINSYFWSWIRQLPGKELEWIGHIYSSGSTRYNPSLQSRVTISIDTSKNQFSLKLSSVTAADTAVYYCARGASAVDYWGQGTLVTVSSASTKGPSVFPLAPCSRSTSESTAALGCLVKDYFPEPVTVSWNSGALTSGVHTFPAVLQSSGLYSLSSVVTVPSSSLGTKTYTCNVDHKPSNTKVDKRV[human IgG4 Fc with S228P (EU numbers) cut from this listing]
light: EIVLTQSPGTLSLSPGERATLSCRTSQSISSGYLAWYQQKPGQAPRLLIYGASRRATGIPDRFSGSGSGTDFTLTISRLEPEDFVVYYCQQYGSSPYTFGQGTKLEIKRTVAAPSVFIFPPSDEQLKSGTASVVCLLNNFYPREAKVQWKVDNALQSGNSQESVTEQDSKDSTYSLSSTLTLSKADYEKHKVYACEVTHQGLSSPVTKSFNRGEC
Take B1: the “binding to monomeric mouse FGFR3b” value in the experiment with mouse FGFR3b was “shown to bind”. In addition, in the experiment on human FGFR3b (hFGFR3b), the “binding to human FGFR3b” value is “shown to bind”. In experiment [1], the “pMAPK after FGF1/heparin stimulation, WT hFGFR3b” value is “no increases in pMAPK”. Also, the “pMAPK after FGF1/heparin stimulation, Y375C hFGFR3b” value in experiment [2] was “small increase in pMAPK levels”. Besides, the “Agonist Activity (second figure of the cell, percent)” value with FGFR3 [3] came out at 16.1%. Besides, the “antiproliferative activity in RT4 spheroid proliferation assay” value in experiment [4] (FGFR3-TACC3 fusion, 5 to 6 days) is listed as “modest inhibitory activity”. Further, in experiment [4] (IgG backbones compared), the “impact of IgG subclass on activity on RT4 cell proliferation” value was “modest effect on IC50”. Also, the “UMUC14 tumor growth after discontinuation of dosing” value in experiment [5] (BiP063N2 6.65 mg/kg or mAb063 5 mg/kg, dosing discontinued day 32, monitored until day 46) was “sustained tumor growth suppression”. Moreover, the UMUC14 tumor growth entry in experiment [5] (mAb063 10 and 3 mg/kg, BiP063N2 13.3 and 4 mg/kg (same molar), i.p. twice per week) is “tumor regression”. Besides, the “Ligand Blocking Activity (second figure of the cell, percent)” value in the experiment with FGFR3 [6] is reported as 95%.
